# Hit rate of the full screen: of about 45,000 compounds, about 65 (0.1%) were called active. The call rests on the fitted dose curve; in most records, active means well fitted activation curve with a large enough effect; inconclusive means small, poorly fitted or top-dose-only effect; inactive means no such curve, though single readings can be large or run the other way. This is one part of the list.
# Target: Galactocerebrosidase (Homo sapiens) (UniProt P54803)
# Experiment: A Novel Cell-Based Assay to Identify Small Molecules for B -Galactocerebrosidase; further: nearly all actives have a fitted effect of over 65% in size; on activation: 0% is about no effect
# Conditions: 145M-Twi-hGALC-G270D cells (Twitcher mouse brain line with human GALC G270D), HMU-beta-Gal fluorescence, 48 h; series mostly up to 57.5 µM; activation: at the top concentration
# Summary of the method: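 Mutant human GALC (G270D), stably expressed in a Twitcher mouse brain cell line lacking endogenous GALC, is measured in live-treated cells via 6-hexadecanoylamino-4-methylumbelliferyl-β-galactoside hydrolysis (0.1 mM final, pH 5.2) with fluorescent detection.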
# Potency means the concentration at half of the fitted maximal effect.
# UniProt P54803, sequence (P54803 whole entry, looked up): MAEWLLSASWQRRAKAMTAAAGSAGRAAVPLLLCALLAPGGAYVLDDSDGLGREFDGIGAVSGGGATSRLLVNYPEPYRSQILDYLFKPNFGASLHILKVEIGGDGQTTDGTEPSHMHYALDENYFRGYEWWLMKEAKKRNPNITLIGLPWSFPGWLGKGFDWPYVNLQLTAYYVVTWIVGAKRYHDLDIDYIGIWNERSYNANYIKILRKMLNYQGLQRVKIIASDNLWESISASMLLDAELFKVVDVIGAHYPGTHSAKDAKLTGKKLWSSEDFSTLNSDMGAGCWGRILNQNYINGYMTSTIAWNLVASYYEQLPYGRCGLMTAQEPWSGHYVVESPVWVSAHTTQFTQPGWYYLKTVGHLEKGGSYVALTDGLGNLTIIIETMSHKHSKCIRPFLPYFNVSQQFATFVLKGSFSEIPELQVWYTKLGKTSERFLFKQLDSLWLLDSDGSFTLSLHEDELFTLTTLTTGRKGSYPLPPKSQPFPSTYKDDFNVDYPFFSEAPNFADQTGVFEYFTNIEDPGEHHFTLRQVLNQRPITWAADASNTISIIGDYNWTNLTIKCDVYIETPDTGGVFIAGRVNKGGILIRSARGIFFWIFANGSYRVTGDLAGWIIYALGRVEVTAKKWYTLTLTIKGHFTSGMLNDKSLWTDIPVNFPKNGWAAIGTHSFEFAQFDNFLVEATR
Structure (SMILES),activation,Potency
COc1ccc(N2CCN(c3cc(C)nc4nncn34)CC2)cc1,inactive: -12.7%,
Cc1ccc(S(=O)(=O)NCCc2csc3nc(-c4ccccc4C)nn23)cc1,inactive: -3.24%,
Cc1ccc(CNC(=O)C(C)n2ccc3cc(S(=O)(=O)N4CCCC4)ccc32)cc1 (configuration not stated),inactive: -9.83%,
CCOc1cc(CNC(=O)c2ccc3nc(CCc4ccccc4)oc3c2)ccc1OC,inactive: -9.5%,
O=C(CSc1nc2ccccc2n1Cc1c(F)cccc1Cl)N1CCN(c2ccc(F)cc2)CC1,inactive: -14.4%,
O=C(CSc1nc2ccsc2c(=O)n1Cc1ccccc1Cl)NCc1ccc(Cl)cc1,inactive: -12.8%,
COc1ccc(NC(=O)CN2C(=O)C3(SCC(=O)N3c3cccc(OC)c3)c3ccccc32)cc1 (configuration not stated),inactive: -21.7%,
COc1cccc(C2=CC(c3ccccc3F)n3c(nc4ccccc43)N2)c1 (configuration not stated),inactive: -12%,
CCC(C(=O)N1CCN(c2ccccc2)CC1)n1nc(C)c2sc3ccccc3c2c1=O (configuration not stated),inactive: 0.182%,
Cc1ccccc1NC(=O)c1cnc2sc(N3CCCC3)nn2c1=O,inactive: 11.1%,
COc1ccc(N2CC(NC(=O)c3c(F)cccc3Cl)CC2=O)cc1OC (configuration not stated),inactive: -0.843%,
CCOc1ccc(N2CC(c3nc4ccccc4n3CCOc3ccc(CC)cc3)CC2=O)cc1 (configuration not stated),inactive: -11.9%,
O=C(c1ccc2c(Cl)c3c(nc2c1)CCCC3)N1CCN(c2ccccc2F)CC1,inactive: -24.4%,
O=C(Nc1nnc(SCc2cc(=O)n3cc(Cl)ccc3n2)s1)c1cccc(F)c1,inactive: -12.4%,
Cc1cccc(OCCCn2c(CCNC(=O)C(C)(C)C)nc3ccccc32)c1,inactive: -0.274%,
CCCN1CCc2nc(N3CCN(c4ncccn4)CC3)ncc2C1,inactive: -10.5%,
Cc1cccc(OCCSc2nc3ccc(NC(=O)COc4ccccc4)cc3s2)c1,inactive: -19%,
CCn1cc2nc(SCc3cc(C)ccc3C)n(Cc3ccc(OC)cc3)c(=O)c2n1,inactive: -25.4%,
Cc1ccc(C)c(CN2C(=O)c3ccccc3S(=O)(=O)c3ccc(C(=O)NCc4ccccc4)cc32)c1,inactive: -10.2%,
COc1ccc(CN(Cc2ccco2)c2cnc(S(C)(=O)=O)nc2C(=O)Nc2ccc(C)cc2C)cc1,inactive: -8.87%,
Cc1c(C(=O)NCc2ccccc2Cl)sc2nc[nH]c(=O)c12,inactive: -1.29%,
Cc1ccc2c(=O)c(C(=O)c3ccc(F)cc3)cn(CC(=O)NCCc3ccccc3)c2n1,inactive: 0.646%,
CCOCCCNC(=O)C(=O)Nc1c2c(nn1-c1ccc(OC)cc1)CSC2,inactive: -5.56%,
CCOc1ccc(C(=O)Nc2ccc3oc(-c4cccnc4)nc3c2)cc1,inactive: -19.6%,
CCC12CN3CC(CC)(CN(C1)C3c1cc(Br)ccc1OC)C2=O (configuration not stated),inactive: -14.3%,

Structure (SMILES),activation,Potency
CCn1cc(C(=O)NCc2ccc(C)cc2)c(=O)c2cc(S(=O)(=O)N3CCc4ccccc4C3)ccc21,inactive: -3.06%,
Cc1nc(-c2ccc(S(=O)(=O)N3CCN(c4ccc(F)cc4)CC3)cc2)co1,inactive: -36.9%,
CNC(=O)c1cnn(-c2nc(N)c3ncn([C@@H]4O[C@H](CO)[C@@H](O)[C@H]4O)c3n2)c1,inactive: -20.6%,
O=C(Nc1c(C(=O)N2CCN(c3ccccc3F)CC2)oc2ccccc12)c1ccccc1F,inactive: -1.48%,
O=C(CSc1nc2ccncc2[nH]1)Nc1ccccc1C(F)(F)F,inactive: 5%,
Cc1csc2nc(COC(=O)CNC(=O)c3ccccc3Cl)cc(=O)n12,inactive: -23.3%,
Cc1ccc(-n2nc3c(=O)n(CCCC(=O)NCc4ccccc4F)nc(C)c3c2C)cc1,inactive: -22.3%,
CN1CCN(CCCNC(=O)c2ccc3nc(Cc4ccccc4)oc3c2)CC1,inactive: -10.1%,
O=C(CN1CCCN(Cc2ccc(F)cc2)S1(=O)=O)NCc1ccccc1Cl,inactive: -11%,
Cc1ccc(Cn2c(CNC(=O)c3cccc(C)c3)nc3ccccc32)cc1,inactive: -9.21%,
COc1ccccc1-c1nnc(C2CCN(C(=O)c3ccc(Cl)cc3)CC2)o1,inactive: -20.2%,
COc1cccc2c1Oc1ncccc1N(C(=O)CCC(=O)NCc1ccc(C)cc1)C2,inactive: -1.35%,
N#Cc1ccccc1NC(=O)c1cnc(N2CCOCC2)c2ccccc12,inactive: 0.774%,
CCc1ccc(N(C)S(=O)(=O)c2ccc3[nH]cc(C(=O)NCC4CCCO4)c(=O)c3c2)cc1 (configuration not stated),inactive: -5.41%,
CC(=O)N1CCOc2cc(S(=O)(=O)N(C)Cc3ccccc3)c(Cl)cc21,inactive: 3.72%,
CCC(=O)N1CCc2cc(Br)cc(S(=O)(=O)CCC(=O)NCc3ccc(F)cc3)c21,inactive: -6.38%,
CCN1C(=O)C(Cc2nc3ccccc3c(=O)n2-c2ccccc2)c2cc(Br)ccc21 (configuration not stated),inactive: -42.5%,
Cc1oc(-c2ccc(C(=O)Nc3ccccc3F)cc2)nc1COc1ccccc1,inactive: -15.2%,
COc1ccc(C)cc1NC(=O)CSc1nc(=O)n(Cc2ccccn2)c2c1CCC2,inactive: -23.1%,
Cn1nnnc1SCCCNCc1cccc(OCc2ccccc2Cl)c1,inactive: -15.3%,
CCC(=O)c1c(O)cc(O)cc1O,inactive: -6.79%,
CCc1ccc2nc(N3CCN(C(=O)C4CC4)CC3)sc2c1,inactive: -2.41%,
CCOc1ccccc1NC(=O)Cn1c2ncccc2c(=O)n1-c1ccc(C)c(C)c1,inactive: -14.2%,
COc1ccc(CNc2oc(-c3ccc(COc4ccc(OC)cc4)o3)nc2C#N)cc1,inactive: -7.97%,
Cc1oc2c(c(C)cc3oc(=O)c(CC(=O)NCc4ccc(F)cc4)c(C)c32)c1C,inactive: -3.84%,

Structure (SMILES),activation,Potency
CC(=O)N1CCCc2cc(S(=O)(=O)Nc3ccc(C)c(F)c3)ccc21,inactive: -13.4%,
CCOc1ccc(NC(=O)CN2C(=O)C3(SCC(=O)N3c3ccc(F)cc3)c3ccccc32)cc1 (configuration not stated),inactive: -17.1%,
Cc1cccc(C)c1NC(=O)CN1C(=O)c2cccc3cccc1c23,inactive: -9.65%,
CCc1nn(CC(=O)N2CCN(c3cccc(C(F)(F)F)c3)CC2)c(=O)c2cccn12,inactive: -16.5%,
CC(=O)N1CCc2cc(S(=O)(=O)NC(Cc3ccccc3)C(=O)Nc3ccc(Cl)cc3)ccc21 (configuration not stated),inactive: -11.7%,
Cc1cc(C)c(OCC(=O)N(Cc2cccc(F)c2)Cc2ccco2)c(C)c1,inactive: -6.84%,
CCOC(=O)c1ccc(NS(=O)(=O)c2ccc3[nH]c4c(c3c2)CCCCC4)cc1,inactive: -36.2%,
Cc1cccc(NC(=O)Cn2c(=O)oc3cc(S(=O)(=O)NC4CCCC4)ccc32)c1,inactive: -24.2%,
COC(=O)CCNC(=O)N1CCN(c2nnc(C)c3c(C)n(-c4ccc(Cl)cc4)nc23)CC1,inactive: -18.1%,
COc1ccc(-c2cn3nc(SCC(=O)Nc4ccc(C)c(Cl)c4)ccc3n2)cc1,inactive: -9.1%,
COC(=O)c1ccc(NC(=O)CN2C(=O)c3cccc4cccc2c34)cc1,inactive: -13.7%,
Cc1ccc(NC(c2ccc(Cl)cc2)c2nnc(-c3cccc(F)c3)o2)cc1C (configuration not stated),inactive: -7.49%,
Cc1cc(C)c(NC(=O)COc2ccc3c(C)cc(=O)oc3c2)c(C)c1,inactive: 2.55%,
O=C(CSc1nc2c([nH]c3ccccc32)c(=O)n1-c1ccc(Cl)cc1)N1CCCC1,inactive: -9.24%,
O=S(=O)(NCC(Nc1ccc(Cl)cc1)c1ccccc1)c1ccccc1 (configuration not stated),inactive: -9.45%,
CCN(CCCNC(=O)c1cc(Nc2ccccc2OC)nc2ccccc12)c1cccc(C)c1,inactive: -31.7%,
COc1ccc(-c2noc(C3CC(=O)N(c4ccccc4)C3)n2)c(OC)c1 (configuration not stated),inactive: -10.4%,
COc1ccc(OC)c(CCNC(=O)c2c3c(nc4ccccc24)C(=O)N(C2CCCCC2)C3)c1,inactive: -13.9%,
COc1ccc(NC(=O)Cn2nc(C)c3nn(-c4ccc(Cl)cc4)c(C)c3c2=O)cc1,inactive: -7.86%,
COc1cccc(Nc2nc3cc(Cl)c(Cl)cc3nc2-n2nc(C)cc2C)c1,inactive: -9.35%,
CCOc1ccc(S(=O)(=O)c2cn(Cc3cc(C)ccc3C)c3ccc(OCC)cc3c2=O)cc1,inactive: -13.5%,
CCOC(=O)Cn1c(=O)oc2cc(S(=O)(=O)N3CCN(c4ccc(C(C)=O)cc4)CC3)ccc21,inactive: -2.15%,
CCOc1ccc(-c2nc(Cn3c(=O)cc(C)c4c(C)nn(-c5ccc(C)cc5)c43)c(C)o2)cc1,inactive: -6.1%,
CCc1c(C)sc2c1CCN(C(=O)Nc1ccc(F)c(Cl)c1)C2c1ccc(F)cc1 (configuration not stated),inactive: -15.1%,
COc1ccc(CCNC(=O)CCn2c(=O)c3ccccc3n(CC(=O)Nc3ccc(C)cc3C)c2=O)cc1OC,inactive: -5.26%,

Structure (SMILES),activation,Potency
O=C(Nc1ccccc1)C1CCN(S(=O)(=O)c2ccc3[nH]c4c(c3c2)CCCCC4)CC1,inactive: -7.15%,
COc1ccccc1NC(=O)C1=C(C)Nc2nc(SCc3ccccc3)nn2C1c1cccnc1 (configuration not stated),inactive: -1.65%,
CC1CCN(c2oc(/C=C/c3ccc(F)cc3)nc2C#N)CC1,,active: 25.1 µM
COc1ccccc1CNC(=O)c1cnc(N2CCCC2)nc1C,inactive: -6.01%,
CCOc1ccc(NC(=O)c2cc(S(=O)(=O)N3CCOCC3)ccc2F)cc1,inactive: -13.3%,
CCCOC(=O)c1ccc(Cn2nnc3sc4c(c3c2=O)CCC(C)C4)cc1 (configuration not stated),inactive: -9.92%,
COc1ccccc1N(CC(=O)NCCSCc1cccc(Cl)c1)S(C)(=O)=O,inactive: -9.11%,
O=C(C1CCC(Cn2c(=O)c3sccc3n(Cc3ccccc3F)c2=O)CC1)N1CCCCC1 (configuration not stated),inactive: -9.96%,
CCOc1ccc(NC(=O)c2cc3c(=O)n(Cc4cccs4)ccc3nc2C)cc1,inactive: -13.6%,
CN(C)C(=O)Nc1ccc(Cl)c(Cl)c1,inactive: -12.1%,
O=C(Nc1ccc(Cl)cc1)N1CCN(c2ccc3nnc(-c4ccccc4)n3n2)CC1,inactive: -35.3%,
Cn1c(=O)c2c(c3ccccc31)OC(=O)CC2c1cccc(F)c1 (configuration not stated),inactive: -13.8%,
CC(=O)N1C[C@H](O)C[C@H]1C(=O)O,inactive: -14.6%,
Cc1cc(C)c(NC(=O)c2ncoc2-c2ccco2)c(C)c1,inactive: -13.5%,
CC(C)NC(=O)C1CCN(C(=O)c2cc3sccc3n2Cc2ccc(Cl)cc2)CC1,inactive: -8.13%,
CCCCNC(=O)C1CCN(S(=O)(=O)c2ccc3c(ccn3CC)c2)CC1,inactive: -10.3%,
CCN(CC)CCSc1nnc2c3cc(F)ccc3n(C)c2n1,inactive: -13.5%,
O=S(=O)(O)c1ccc2nc(-c3ccccc3)[nH]c2c1,inactive: -16.9%,
CC(NC(CCc1ccccc1)C(=O)O)C(=O)N1C(=O)N(C)CC1C(=O)O (configuration not stated),inactive: -9.37%,
Cc1cc(C)cc(NC(=O)CSc2nnc(-c3cc4occc4n3C)n2-c2ccccc2C)c1,inactive: -12.5%,
COc1ccc2c(CNC3CCCCCC3)c(C(=O)O)n(Cc3cccc(F)c3)c2c1,inactive: -0.302%,
O=S(=O)(NCCc1csc2nc(-c3ccccc3)nn12)c1ccc(Cl)s1,inactive: -2.59%,

# — PubChem BioAssay AID1159614 (National Center for Advancing Translational Sciences (NCATS), 2016)
